Reference: the supplement of paper PMC8728848
The other results are listed elsewhere or left out.

Key:
Test in all cases: glycan array binding signal (z-score within array); higher = stronger binding
Details in all cases: glycan notation: IUPAC condensed, linker removed; mutation: D325N
GlcNAc(b1-3)Gal(b1-4)Glc = target: GlcNAc(b1-3)Gal(b1-4)Glc
Method in brief: (§1)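 Columns mapping to the same glycan were averaged after glycan names were converted to IUPAC-condensed notation. The data come from 3228 arrays in the Consortium for Functional Glycomics database, limited to those with an available protein sequence. Binding is reported as a within-array Z-score averaged across arrays of one protein sequence and across linkers.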

[1] = target: GlcNAc(b1-3)Gal(b1-4)GlcNAc
Method in brief: as §1

[2] = target: GlcNAc(b1-3)Gal(b1-4)GlcNAc(b1-3)Gal(b1-4)GlcNAc
Method in brief: as §1

GlcNAc(b1-3)GalNAc = target: GlcNAc(b1-3)GalNAc
Method in brief: as §1

GlcNAc(b1-3)Man = target: GlcNAc(b1-3)Man
Method in brief: as §1

[3] = target: GlcNAc(b1-3)[GlcNAc(b1-4)][GlcNAc(b1-6)]GlcNAc
Method in brief: as §1

[4] = target: GlcNAc(b1-3)[GlcNAc(b1-6)]Gal(b1-4)GlcNAc
Method in brief: as §1

[5] = target: GlcNAc(b1-3)[GlcNAc(b1-6)]GalNAc
Method in brief: as §1

[6] = target: GlcNAc(b1-4)Gal(b1-4)GlcNAc
Method in brief: as §1

GlcNAc(b1-4)GlcNAc = target: GlcNAc(b1-4)GlcNAc
Method in brief: as §1

[7] = target: GlcNAc(b1-4)GlcNAc(b1-4)GlcNAc
Method in brief: as §1

[8] = target: GlcNAc(b1-4)GlcNAc(b1-4)GlcNAc(b1-4)GlcNAc(b1-4)GlcNAc
Method in brief: as §1

[9] = target: GlcNAc(b1-4)GlcNAc(b1-4)GlcNAc(b1-4)GlcNAc(b1-4)GlcNAc(b1-4)GlcNAc
Method in brief: as §1

[10] = target: GlcNAc(b1-4)[GlcNAc(b1-6)]GalNAc
Method in brief: as §1

[11] = target: GlcNAc(b1-6)Gal(b1-4)GlcNAc
Method in brief: as §1

GlcNAc(b1-6)GalNAc = target: GlcNAc(b1-6)GalNAc
Method in brief: as §1

GlcNAc3Prop(b1-4)GlcNAc = target: GlcNAc3Prop(b1-4)GlcNAc
Method in brief: as §1

Kdn(a2-3)Gal(b1-3)GlcNAc = target: Kdn(a2-3)Gal(b1-3)GlcNAc
Method in brief: as §1

Kdn(a2-3)Gal(b1-4)GlcNAc = target: Kdn(a2-3)Gal(b1-4)GlcNAc
Method in brief: as §1

[12] = target: Man(a1-2)Man(a1-2)Man(a1-3)Man
Method in brief: as §1

[13] = target: Man(a1-2)Man(a1-2)Man(a1-6)[Man(a1-3)]Man
Method in brief: as §1

Man(a1-2)Man(a1-3)Man = target: Man(a1-2)Man(a1-3)Man
Method in brief: as §1

[14] = target: Man(a1-2)Man(a1-3)[Man(a1-2)Man(a1-6)]Man
Method in brief: as §1

[15] = target: Man(a1-2)Man(a1-3)[Man(a1-2)Man(a1-6)]Man(a1-6)[Man(a1-2)Man(a1-2)Man(a1-3)]Man
Method in brief: as §1

[16] = target: Man(a1-2)Man(a1-3)[Man(a1-2)Man(a1-6)]Man(a1-6)[Man(a1-2)Man(a1-2)Man(a1-3)]Man(b1-4)GlcNAc(b1-4)GlcNAc
Method in brief: as §1

[17] = target: Man(a1-2)Man(a1-3)[Man(a1-6)]Man(a1-6)[Man(a1-2)Man(a1-3)]Man(b1-4)GlcNAc(b1-4)GlcNAc
Method in brief: as §1

[18] = target: Man(a1-2)Man(a1-6)[Man(a1-3)]Man(a1-6)[Man(a1-2)Man(a1-2)Man(a1-3)]Man
Method in brief: as §1

[19] = target: Man(a1-2)Man(a1-6)[Man(a1-3)]Man(a1-6)[Man(a1-2)Man(a1-2)Man(a1-3)]Man(b1-4)GlcNAc(b1-4)GlcNAc
Method in brief: as §1

Man(a1-3)[Man(a1-6)]Man = target: Man(a1-3)[Man(a1-6)]Man
Method in brief: as §1

[20] = target: Man(a1-3)[Man(a1-6)]Man(a1-6)[Man(a1-2)Man(a1-3)]Man(b1-4)GlcNAc(b1-4)GlcNAc
Method in brief: as §1

[21] = target: Man(a1-3)[Man(a1-6)]Man(a1-6)[Man(a1-3)]Man
Method in brief: as §1

[22] = target: Man(a1-3)[Man(a1-6)]Man(a1-6)[Man(a1-3)]Man(b1-4)GlcNAc(b1-4)GlcNAc
Method in brief: as §1

[23] = target: Man(a1-3)[Man(a1-6)]Man(b1-4)GlcNAc(b1-4)GlcNAc
Method in brief: as §1

Man(a1-6)Man = target: Man(a1-6)Man
Method in brief: as §1

Man(b1-4)GlcNAc = target: Man(b1-4)GlcNAc
Method in brief: as §1

Neu5Ac(a2-3)Gal = target: Neu5Ac(a2-3)Gal
Method in brief: as §1

[24] = target: Neu5Ac(a2-3)Gal(b1-3)GalNAc
Method in brief: as §1

B1: Surfactant Protein D (Human); Neck + Carbohydrate Recognition Domain (NCRD) (Homo sapiens) (protein)
chain: MLLFLLSALVLLTQPLGYLEAEMKTYSHRTMPSACTLVMCSSVESGLPGRDRDGREGPRGEKGDPGLPGAAGQAGMPGQAGPVGPKGDNGSVGEPGPKGDTGPSGPPGPPGVPGPAGREGALGKQGNIGPQGKPGPKGEAGPKGEVGAPGMQGSAGARGLAGPKGERGVPGERGVPGNTGAAGSAGAMGPQGSPGARGPPGLKGDKGIPGDKGAKGESGLPDVASLRQQVEALQGQVQHLQAAFSQYKKVELFPNGQSVGEKIFKTAQFVKPFTEAQLLCTQAGGQLASPRSAAENAALQQLVVAKNEAAFLSMTDSKTEGKFTYPTGESLVYSNWAPGEPNDNGGSEDCVEIFTNGKWNDRACGEKRLVVCEF
In the case of B1, the “glycan array binding signal (z-score)” value (GlcNAc(b1-3)Gal(b1-4)Glc) is reported as -0.118, the “glycan array binding signal (z-score)” value [1] is reported as -0.139 and the “glycan array binding signal (z-score)” value [2] is reported as -0.138. For the same binder, the “glycan array binding signal (z-score)” value (GlcNAc(b1-3)GalNAc) was -0.15, the “glycan array binding signal (z-score)” value (GlcNAc(b1-3)Man) was -0.144 and the “glycan array binding signal (z-score)” value [3] was -0.153. The “glycan array binding signal (z-score)” value [4] was -0.148, the “glycan array binding signal (z-score)” value [5] was -0.107 and the “glycan array binding signal (z-score)” value [6] was -0.101. For the same binder, the “glycan array binding signal (z-score)” value (GlcNAc(b1-4)GlcNAc) was -0.143, the “glycan array binding signal (z-score)” value [7] was -0.134 and the “glycan array binding signal (z-score)” value [8] was -0.126. For the same binder, the “glycan array binding signal (z-score)” value [9] was -0.109, the “glycan array binding signal (z-score)” value [10] was -0.131 and the “glycan array binding signal (z-score)” value [11] was -0.138. The “glycan array binding signal (z-score)” value (GlcNAc(b1-6)GalNAc) was -0.156, the “glycan array binding signal (z-score)” value (GlcNAc3Prop(b1-4)GlcNAc) was -0.093 and the “glycan array binding signal (z-score)” value (Kdn(a2-3)Gal(b1-3)GlcNAc) was -0.148. The “glycan array binding signal (z-score)” value (Kdn(a2-3)Gal(b1-4)GlcNAc) was -0.172, the “glycan array binding signal (z-score)” value [12] was 2.18 and the “glycan array binding signal (z-score)” value [13] was 0.416. For the same binder, the “glycan array binding signal (z-score)” value (Man(a1-2)Man(a1-3)Man) was -0.133, the “glycan array binding signal (z-score)” value [14] was 1.77 and the “glycan array binding signal (z-score)” value [15] was 9.38. The “glycan array binding signal (z-score)” value [16] was -0.103, the “glycan array binding signal (z-score)” value [17] was 0.891 and the “glycan array binding signal (z-score)” value [18] was 8.54. The “glycan array binding signal (z-score)” value [19] was 0.207, the “glycan array binding signal (z-score)” value (Man(a1-3)[Man(a1-6)]Man) was -0.142 and the “glycan array binding signal (z-score)” value [20] was 0.79. The “glycan array binding signal (z-score)” value [21] was 11.2, the “glycan array binding signal (z-score)” value [22] was 0.338 and the “glycan array binding signal (z-score)” value [23] was 0.376. For the same binder, the “glycan array binding signal (z-score)” value (Man(a1-6)Man) was -0.118, the “glycan array binding signal (z-score)” value (Man(b1-4)GlcNAc) was -0.119 and the “glycan array binding signal (z-score)” value (Neu5Ac(a2-3)Gal) was -0.155. The “glycan array binding signal (z-score)” value [24] was -0.136.
